{"source": "paper PMC7819943", "about": "“Rice protein-binding microarrays: a tool to detect cis-acting elements near promoter regions in rice”", "note": "The list shows a part of the results.", "data": [{"molecular_target": "T1, OsWOX13 (Oryza sativa, UniProt Q5QMM3 1-267)", "T1 sequence": "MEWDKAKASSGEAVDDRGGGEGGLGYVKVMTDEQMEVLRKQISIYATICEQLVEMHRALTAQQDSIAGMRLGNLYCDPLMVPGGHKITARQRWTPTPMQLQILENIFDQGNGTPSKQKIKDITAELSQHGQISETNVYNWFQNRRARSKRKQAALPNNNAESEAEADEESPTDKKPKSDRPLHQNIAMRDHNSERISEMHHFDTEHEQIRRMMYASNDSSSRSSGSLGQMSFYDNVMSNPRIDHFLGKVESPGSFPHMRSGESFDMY", "assay": "protein-binding microarray (RPBM); PBS, 2% BSA, 51.3 ng/ul salmon testes DNA, 50 uM zinc acetate, 200 nM TF, 25 C, 1 h; high values mean tight binding", "settings": "protein: recombinant; tags: N-terminal polyhistidine and DsRed monomer fusion (pET32a); label: CyDye5-dUTP incorporated in the synthesized complementary strand; 3' TTTTT single-stranded linker to array surface; dsDNA, one strand shown", "outline": "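The binding signal is fluorescence intensity per array feature (arbitrary units). Readings came from an Axon 4000B scanner after a washed, 2% BSA-blocked, double-stranded custom Agilent array had been incubated for 1 h at 25 °C with 200 nM protein and 50 µM zinc acetate. The protein was a Ni–NTA-purified transcription factor fused N-terminally to polyhistidine and DsRed, expressed in E. coli BL21-CodonPlus.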", "values": [{"sequence": "TACGCATTGATTAGTTTTGTCAGGTTAGTATAGAATTTAACGGAGTCACCTAGTGCAG", "binding signal": "14000 fluorescence intensity (a.u.)"}, {"sequence": "AGACAATTGATTTGGTATCATCTACGACATACGACATATTCGGAGTCACCTAGTGCAG", "binding signal": "43900 fluorescence intensity (a.u.)"}, {"sequence": "GCGCTGATTAGATGGAACTAAAACTTTAGTGTAAAGTGACCGGAGTCACCTAGTGCAG", "binding signal": "39600 fluorescence intensity (a.u.)"}, {"sequence": "CCCATCATTATTTCTTTGATTTCAGGTGATCTTCCCATCACGGAGTCACCTAGTGCAG", "binding signal": "5580 fluorescence intensity (a.u.)"}, {"sequence": "ATGATTGTTTCGCTTATACTCATAATAAGCCGTAACGACTCGGAGTCACCTAGTGCAG", "binding signal": "29700 fluorescence intensity (a.u.)"}, {"sequence": "AGTGATGTGACGATGATGTATATGGACCGTGTGTTCTCAACGGAGTCACCTAGTGCAG", "binding signal": "7790 fluorescence intensity (a.u.)"}, {"sequence": "GCATGACTAATTTTGATAAGGTAAAGTTGTGTTTGGATTGCGGAGTCACCTAGTGCAG", "binding signal": "23800 fluorescence intensity (a.u.)"}, {"sequence": "GGGTCACCAATCATTATAAAGAATTAGCTAAAGGTTCTATCGGAGTCACCTAGTGCAG", "binding signal": "10500 fluorescence intensity (a.u.)"}, {"sequence": "GCATCATTAGATTGTTATGATTGTGAGGCAACATCCAGTACGGAGTCACCTAGTGCAG", "binding signal": "16400 fluorescence intensity (a.u.)"}, {"sequence": "TAAAATTGACTCTTATGGTATAGAAATTCTCATATTTACGCGGAGTCACCTAGTGCAG", "binding signal": "16900 fluorescence intensity (a.u.)"}, {"sequence": "TATTGTAATCTAGATTATTGACCCAGATTACTATAAGTTGCGGAGTCACCTAGTGCAG", "binding signal": "10500 fluorescence intensity (a.u.)"}, {"sequence": "CTAATTAATTCAGTAGCAATTGCCCAAACTAAACTTTACGCGGAGTCACCTAGTGCAG", "binding signal": "13400 fluorescence intensity (a.u.)"}, {"sequence": "TATAAATTCAATTTAGGTTTGGGAAAGATCTTAATGGTGTCGGAGTCACCTAGTGCAG", "binding signal": "8210 fluorescence intensity (a.u.)"}, {"sequence": "AAAGCAATCACAGATTCATACCTTGATATAAACTCCTAAGCGGAGTCACCTAGTGCAG", "binding signal": "7230 fluorescence intensity (a.u.)"}, {"sequence": "AAGCGATTTGAAATTTGATAGCAATAGTTTTGTGTGGTGCCGGAGTCACCTAGTGCAG", "binding signal": "3590 fluorescence intensity (a.u.)"}, {"sequence": "GTAAATAAATAATTACTTATGTACAATACTGTTATTCTGTCGGAGTCACCTAGTGCAG", "binding signal": "14200 fluorescence intensity (a.u.)"}, {"sequence": "AGTGACACTAATTAAACATATATGTTGTGATTTGCTCGCTCGGAGTCACCTAGTGCAG", "binding signal": "39300 fluorescence intensity (a.u.)"}, {"sequence": "CTTTAGTCTCTGACACTAATTTAGAGTATTAAATATAGACCGGAGTCACCTAGTGCAG", "binding signal": "3810 fluorescence intensity (a.u.)"}, {"sequence": "TTATAAATAATTTATAGTCAATTAATCATGCGCTGATGACCGGAGTCACCTAGTGCAG", "binding signal": "48200 fluorescence intensity (a.u.)"}, {"sequence": "ATGAATTAATTTCATAACCCTGATTAGTCTCTTATCCTGTCGGAGTCACCTAGTGCAG", "binding signal": "41400 fluorescence intensity (a.u.)"}, {"sequence": "ATAATTTGAAATTTAAATTTAAACTGTTCAAACAAAGTCACGGAGTCACCTAGTGCAG", "binding signal": "24700 fluorescence intensity (a.u.)"}, {"sequence": "TAGGAAATCACATCCATCAATAGCGTTGTCAATCCTTCGACGGAGTCACCTAGTGCAG", "binding signal": "4050 fluorescence intensity (a.u.)"}, {"sequence": "TACTTGTTGACTGGATTGGAGGATGGACGGTAGTCGGTTGCGGAGTCACCTAGTGCAG", "binding signal": "13100 fluorescence intensity (a.u.)"}, {"sequence": "AGACGTAATTGGAATGGTAGTTTAAGGTGTTGTTTATGTACGGAGTCACCTAGTGCAG", "binding signal": "29800 fluorescence intensity (a.u.)"}, {"sequence": "AAAATTGAATAACTCATCAAGATCTACAACTTTTATTTTGCGGAGTCACCTAGTGCAG", "binding signal": "17000 fluorescence intensity (a.u.)"}, {"sequence": "GTACAAAGTGATTGTGTCACGCGTAGATGACATATAGGCACGGAGTCACCTAGTGCAG", "binding signal": "14700 fluorescence intensity (a.u.)"}, {"sequence": "CGTGATTTCCCTTCCCCTTCCCCTCCCTCCGCCGCATCCCCGGAGTCACCTAGTGCAG", "binding signal": "16000 fluorescence intensity (a.u.)"}, {"sequence": "GTGAATTGATTGATTATAACTTATAAGCAGCCTCCTAGGTCGGAGTCACCTAGTGCAG", "binding signal": "52000 fluorescence intensity (a.u.)"}, {"sequence": "AGCATGATCAATAATAAGGTAATTTAGCTCCAATTATGTCCGGAGTCACCTAGTGCAG", "binding signal": "7040 fluorescence intensity (a.u.)"}, {"sequence": "GGAATTGGTAACAGCAAGCTTAACAGAGAAAGGTAGTCGACGGAGTCACCTAGTGCAG", "binding signal": "8350 fluorescence intensity (a.u.)"}, {"sequence": "ATATATATATATATATATATATATATATATATACATACTACGGAGTCACCTAGTGCAG", "binding signal": "16900 fluorescence intensity (a.u.)"}, {"sequence": "TTTTAATTTAATTTTAGTGTGAACTAAACACTGTCTAAAGCGGAGTCACCTAGTGCAG", "binding signal": "21200 fluorescence intensity (a.u.)"}, {"sequence": "GTGTTAATTTACAACTCACTATTCTTTATATACGACGAGACGGAGTCACCTAGTGCAG", "binding signal": "12000 fluorescence intensity (a.u.)"}, {"sequence": "CATAATTGCTCTTATTTTGTACCTCACTTTAAAACAAACGCGGAGTCACCTAGTGCAG", "binding signal": "29000 fluorescence intensity (a.u.)"}, {"sequence": "GTAGATTAACTTAGTTAGCTCTCACCAAGTGTTATGTTAACGGAGTCACCTAGTGCAG", "binding signal": "10500 fluorescence intensity (a.u.)"}, {"sequence": "ATTCTGATTGGGCGAGACCCACCTCGTGGCCACTGTTGCACGGAGTCACCTAGTGCAG", "binding signal": "40700 fluorescence intensity (a.u.)"}, {"sequence": "TTAAGCATAATTGTTCCATGATCTGGCAATATGGTGCTACCGGAGTCACCTAGTGCAG", "binding signal": "9270 fluorescence intensity (a.u.)"}, {"sequence": "ATTAAAGATGATGAGTGATTGACGTTTTCTGCTCTGCCGACGGAGTCACCTAGTGCAG", "binding signal": "47100 fluorescence intensity (a.u.)"}, {"sequence": "GAGAATAAATTAGAAACCAGAAATTTAAAAGCGCAACCTTCGGAGTCACCTAGTGCAG", "binding signal": "4470 fluorescence intensity (a.u.)"}, {"sequence": "TGCCTATCACTGATGACTATATATGCATCGGCCACAAGAGCGGAGTCACCTAGTGCAG", "binding signal": "7710 fluorescence intensity (a.u.)"}, {"sequence": "TATGATGATTAATGATATAATAATAAGTATGACGGACAATCGGAGTCACCTAGTGCAG", "binding signal": "17700 fluorescence intensity (a.u.)"}, {"sequence": "CTAAGTAGAGAAACTAATTAATTAAGAAGCATCATATCCACGGAGTCACCTAGTGCAG", "binding signal": "3600 fluorescence intensity (a.u.)"}]}]}
